Measured values reported in the supplement of paper PMC3334620.
Whole data set: some 33,000 sequences, median “E-score (-0.5 to 0.5)” near -0.021, cut for the highest 2% near 0.32. This is one part of the list.

target: T1, Zap1 (UniProt P47043); test: PBM E-score (8-mer binding enrichment) (E-score (-0.5 to 0.5)); higher = stronger / more preferred TF binding; most listed sequences are background and not binding sites; conditions: protein concentration: 200 nM; construct: GST-full length
T1 sequence: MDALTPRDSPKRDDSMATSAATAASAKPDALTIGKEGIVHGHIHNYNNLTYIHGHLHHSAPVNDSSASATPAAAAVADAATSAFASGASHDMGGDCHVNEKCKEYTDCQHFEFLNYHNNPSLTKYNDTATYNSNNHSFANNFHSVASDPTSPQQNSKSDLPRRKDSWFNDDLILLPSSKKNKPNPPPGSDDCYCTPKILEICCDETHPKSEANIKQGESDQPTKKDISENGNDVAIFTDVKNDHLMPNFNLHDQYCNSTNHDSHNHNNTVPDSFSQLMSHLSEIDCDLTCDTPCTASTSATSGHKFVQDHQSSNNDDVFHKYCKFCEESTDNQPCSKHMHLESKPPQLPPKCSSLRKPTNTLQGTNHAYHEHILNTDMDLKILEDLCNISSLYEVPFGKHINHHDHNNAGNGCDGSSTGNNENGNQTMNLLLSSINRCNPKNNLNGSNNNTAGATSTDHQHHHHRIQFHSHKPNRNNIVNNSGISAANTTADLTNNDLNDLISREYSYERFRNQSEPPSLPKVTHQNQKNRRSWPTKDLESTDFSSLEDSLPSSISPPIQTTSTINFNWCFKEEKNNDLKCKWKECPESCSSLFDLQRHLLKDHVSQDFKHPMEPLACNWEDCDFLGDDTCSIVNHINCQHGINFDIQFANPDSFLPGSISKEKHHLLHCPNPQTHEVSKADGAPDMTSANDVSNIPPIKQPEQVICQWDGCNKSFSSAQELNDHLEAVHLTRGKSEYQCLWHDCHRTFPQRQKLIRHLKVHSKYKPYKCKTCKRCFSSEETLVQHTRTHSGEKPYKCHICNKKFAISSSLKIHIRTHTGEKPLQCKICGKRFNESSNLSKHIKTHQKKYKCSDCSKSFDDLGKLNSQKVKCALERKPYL
Summary of the method: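 Using PURExpress in vitro transcription/translation, GST-tagged yeast transcription factors were made in full-length or DNA-binding-domain form. These were applied at about 100-200 nM to double-stranded universal all-10-mer Agilent arrays, and bound protein was detected with fluorescent anti-GST. Scans were normalised with masliner before the Universal PBM Analysis Suite assigned E-scores to ungapped eight-base words pooled with their reverse complements.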

Row | Sequence | PBM E-score
1 | ATACTTGG | 0.0112
2 | AATGGGTG | 0.021
3 | ATCTATGG | -0.0335
4 | ACGAGACA | -0.0948
5 | GTGTCAAA | 0.116
6 | AAAGGCCG | 0.0384
7 | ATCAGTCG | -0.0695
8 | CATTAACC | 0.379
9 | CCTACGTC | -0.1
10 | ATGAATTA | 0.112
11 | ACTGTTCT | -0.0178
12 | AAAACCAA | 0.209
13 | ATTCACTC | -0.105
14 | CATTCCCG | 0.0376
15 | AGCGAAAT | -0.0288
16 | GCGAAAGA | 0.00173
17 | GAATACAA | -0.00279
18 | GACAAAAA | 0.242
19 | CGTTGCGC | -0.0628
20 | ATTGGCTC | -0.133
21 | ATCGGGGG | -0.136
22 | CGAAGGTC | -0.00454
23 | ACGCCCTC | -0.0897
24 | AATGATCA | 0.157
25 | GCATTCGC | -0.355

Row | Sequence | PBM E-score
26 | CTCGTGTC | -0.0223
27 | CTACTTTA | -0.034
28 | AGCCAGCA | -0.202
29 | TGAGTCAA | -0.112
30 | AACGGTAC | 0.284
31 | GCCTCAGC | -0.283
32 | AATTATGC | 0.0451
33 | CATCTATA | 0.0272
34 | GAGCAGTA | 0.103
35 | CCGCCCGG | 0.0274
36 | AGCGACCA | -0.0582
37 | CTCTGAAA | -0.0676
38 | ATTAAGCC | -0.137
39 | CGTTAGTC | -0.143
40 | ATCTCCCG | -0.265
41 | ACTAGGAA | 0.0291
42 | GCAAATGC | -0.162
43 | ATCGAATC | 0.0713
44 | CCGCCGAC | 0.00651
45 | CGGACGTA | -0.00666
46 | AATTAGGT | 0.222
47 | ATGGCTAA | -0.133
48 | ATAGCTAA | -0.0958
49 | AAACGCGG | 0.0751
50 | GGATGTAC | 0.0192

Row | Sequence | PBM E-score
51 | AAGATTCT | -0.185
52 | GTTCACGA | 0.0724
53 | CTCTACAG | 0.14
54 | CAGTTCTA | -0.166
55 | CGGGATGA | -0.0209
56 | CAGTTTAG | -0.056
57 | CAAACCTC | -0.0042
58 | CCCTCGTC | -0.134
59 | CGTCCTGA | -0.122
60 | CTCAAAAC | 0.0953
61 | CAAAACCA | 0.311
62 | ATAAGTGC | -0.129
63 | GAATCTTA | 0.00129
64 | AAAACCTG | 0.0984
65 | GATTCACA | -0.204
66 | GTCTCAAA | 0.0694
67 | GTGGCTGA | -0.269
68 | GTAGGGAA | -0.112
69 | GTCTTACA | -0.0947
70 | ACAGCTTC | -0.0237
71 | CAAACACC | 0.0838
72 | ATTCCGGC | -0.0867
73 | CAATCTGC | -0.0901
74 | CAGCGTCC | 0.026
75 | GATGAGTA | 0.0479

Row | Sequence | PBM E-score
76 | CTCTAAGA | 0.135
77 | GACTCAAA | -0.055
78 | AACGCTCA | -0.0354
79 | CCACTTAG | -0.04
80 | CCTGCCCC | -0.259
81 | CTATTATC | 0.0149
82 | GACGACCA | -0.026
83 | AATCAGCA | -0.0933
84 | ACAACATA | 0.0626
85 | ACCAACGC | 0.118
86 | AATTCGCG | 0.0543
87 | AGGATAAA | 0.11
88 | AGGAAACA | 0.196
89 | GTATTCTA | 0.139
90 | ATTGTTAG | 0.161
91 | CTGATGGC | -0.0334
92 | AATTTGTA | 0.121
93 | TAGCTCGA | 0.0239
94 | CCTTCTGC | -0.25
95 | ACCTGCGA | 0.0264
96 | CATCTCGA | -0.0921
97 | CCGGCCTC | -0.0295
98 | GCCGGTAA | 0.161
99 | AACTAACT | 0.00107
100 | ATAGTTCC | -0.00068

Row | Sequence | PBM E-score
101 | CAAATTCG | -0.0821
102 | GCAGAACC | 0.0866
103 | TCAAAAGA | 0.078
104 | CCATCACG | -0.0831
105 | GTAGTGCA | 0.19
106 | ACACGACC | 0.276
107 | AGACTTGG | -0.23
108 | CTGCTCAC | -0.117
109 | CTGTCAAC | -0.0249
110 | GAACTGTA | 0.115
111 | GGCATCAA | -0.199
112 | CAAATAGG | 0.0968
113 | GGTCTTTA | 0.16
114 | ATGCGAAC | 0.117
115 | AATCGAGA | -0.161
116 | ATCGTTAG | 0.00203
117 | AACCTGCT | 0.179
118 | CCGCGCTC | 0.0675
119 | CATTTACG | -0.163
120 | GTTTGTCA | 0.0476
121 | ATGCCTAC | -0.292
122 | AGAATTAG | -0.184
123 | CCTGACTA | 0.00387
124 | TGAAGCAA | -0.0333
125 | ATAATCTC | -0.0139

Row | Sequence | PBM E-score
126 | AAAAGCAA | -0.00278
127 | ATCCCGAC | -0.0856
128 | ATTGGTAG | 0.0197
129 | GCCGTAGA | -0.103
130 | GGTAAGTA | 0.0537
131 | ACAAGACA | 0.161
132 | ACCGATAC | 0.0986
133 | AGGGGCAG | -0.186
134 | ATTTCGAG | -0.0457
135 | ATACGGAG | -0.139
136 | CGTAGTAG | 0.0278
137 | AATAGCAA | 0.18
138 | CGTAGCGC | -0.276
139 | GAATCGCA | -0.119
140 | GCTTCTTA | 0.0259
141 | ATGCGTTA | 0.0446
142 | GAAGACAC | -0.163
143 | CCGATGGA | -0.241
144 | CGTTTAAA | 0.0751
145 | CAGTTTAC | 0.0521
146 | AGTTTAGC | -0.173
147 | AATGCACG | -0.112
148 | GACCTCGC | 0.0843
149 | ATAATCCC | -0.0328
150 | AAGTCACG | -0.189

Row | Sequence | PBM E-score
151 | ATAACCAA | 0.437
152 | CAAAATCC | 0.0864
153 | AGCCACAA | 0.153
154 | AAAAATCT | 0.157
155 | AATAGTGG | 0.0886
156 | TCTAAGCA | -0.0707
157 | GGATGTGA | 0.0688
158 | GCAACCGA | 0.0724
159 | AGAGTTAA | -0.086
160 | CGGTCGGC | -0.122
161 | AACGAGGA | -0.0212
162 | GAACCCGC | 0.156
163 | GGAATTCC | -0.122
164 | CGAAGTTC | -0.112
165 | AACTTGCC | -0.165
166 | AACCCGTG | 0.0714
167 | GAACTCGA | -0.0167
168 | CACCAATG | 0.0461
169 | AGAAAAGA | -0.16
170 | AGAGTCGG | -0.162
171 | TCTACGCA | -0.159
172 | GCCGAATA | -0.0383
